B1: LINE1-mini (parent)
chain: GGCAGAGCUCAACACAGCGUGGCAAAGUGGCUGUGGCUAGACUGCC

The source gives no read counts; variants with many changes may rest on few reads.

The data set covers variants of B1. Nature of the data set: self-cleavage, relative activity (ratio to wild type); higher = more cleavage; in vitro, sequencing; the parent is a self-cleaving ribozyme.
Consider GGCAUGGCUCAACACAGCGUGGCAAAGAGGCUGUGGCUAGACUGCC, for which the self-cleavage came out at 0.07.

On to GGCAUAGCUCAACACGGCGUGGCAAGGUAGCUGUGGCUAGACUGCC, for which the self-cleavage is 0.03.

For the variant GGCAUAGCUCAACACUGCGUUGCAAAGUGGAUGUGGCUAGACUGCC, the self-cleavage was 0.03.

For the variant GGCAUAGCUCAACGCAGCGUAGCAAAGUGGCUGUGGCUAUACUGCC, the self-cleavage is 0.09.

For the variant GGCAUAGCUCCACACAGCGUGGCCAAGUGGCUGUGGCAAGACUGCC, the self-cleavage was found to be 0.02.

Take GGCACAGCUCAACACAGCGUGGCAAAGUGGCUGUGGCAAGACUGGC: the self-cleavage turned out to be 0.02.

As to GGCAUCGCUCAACGCAGCGUGUCAAACUGGGUGUGGCUAGACCGCC, the self-cleavage was 0.

As to GGCAUUGCUCAGCACAGCGUGGCAAAGUGGCUGUGGCUAGUCUGCC, the self-cleavage was 0.01.

For GGCAUCGCUCAACACAGCGUGGCCAAGUGGCUGGGGCUAGACUGCG, the self-cleavage was 0.03.

For the variant GGCAUAGAUGAACACAGCGUGGCAAACUGGCUGUCGCUAGACUGCC, the self-cleavage stood at 0.01.

In the case of GGCAUAGCUCAACGCAGCGUGUAAAAGUGGCUGUGGCUAGACUGCC, the self-cleavage came out at 0.01.

Turning to GGCAUAGAUCAAGACAGCGUGGCAAAGUGGCUGUGCCUAGACUGCA, the self-cleavage was 0.11.

GGCAUAGAUCAACACAGCGUAGCAAAGUGUCUGUGGCUAGACUGCC: the self-cleavage was 0.66.

On to GGCACAGCUCAACACAGCGAGGCAAAGUAGAUGUGGCUAGACUGCC, for which the self-cleavage was 0.04.

Regarding GGCAUAGCUCAACACAGCGUGGCAAUGUGGGUUUGGCUAGACUACC, the self-cleavage came to 0.

As for GGCAUAGCUCAGCAGAGCGUGGCAAAGUGGCUGUGGCUAGACUGUC, the self-cleavage was found to be 0.03.

Take GGCAUAGCUCGACACAGCGUGGGAAAGUGGCUGUGGCUAAAGUGCC: the self-cleavage is 0.01.

Regarding GGCAUAGCUCAACACAGCGUGGCAGAGUGGCUGUUGCUAGACUGCC, the self-cleavage turned out to be 0.01.

Take GGCAUAGCUCAUCACAGCGUGGCAAAGUGGCUUUGGCUAGACUGCC: the self-cleavage amounted to 0.02.

Consider GGCACAGCUCAACACAGCGCGGCAAAGUGGCUGUGGCUAGACUGGC, for which the self-cleavage stood at 0.04.

Regarding GGCAUUGCUCAACACAGCGUGGCAAAGUGGCUGUGGGUAGACUGCC, the self-cleavage turned out to be 0.13.

With GGCACAGCUCAACACAGCGUGGCAAAGUGGCUGCGGCUAGACUGGC, the self-cleavage came out at 0.02.

GGCAUGGCUCAACACAGCGUGGCGAAGUGGCUGUGGCUAGACUGCC: the self-cleavage is 0.1.

As to GGCAUGGCUCAAAACAGCGCGGCAAAGUGGCUGUGGCCAGACUGCC, the self-cleavage was 0.04.

For GGCACAGCUCAACACAGCGGGGCAGAGUGGCUGUGGCUAGACUGCC, the self-cleavage is 0.11.

Turning to GGCAUUGCUCAACACAGCGUGGCAAAGUGGCUGUGGCGAGAUUGCC, the self-cleavage came to 0.01.

GGCAUAGCUAAACACUGCGUGGCAAAGUGGCUGCGGCUAGACUGCC: the self-cleavage is 0.04.

In the case of GGCAUAGCUAUACACAGCCUGGCACAGGAGCUGUGGCUAGACUGCC, the self-cleavage came out at 0.01.

On to GGCAUAGCUCGACACAGCGGGGCAAAGUGGCUGUGGCUAGACUGCC, for which the self-cleavage is 0.03.

Regarding GGCAUGGCUCAACACAGCGUAGUAAAGUGUCUGUGGCUAGACUGCC, the self-cleavage worked out at 0.07.

Regarding GGCAUAGCUCAACCCACAGUGGCAAAGUGGCUGUGGCUUGACUGCC, the self-cleavage came out at 0.

In the case of GGCAUAGCUCAACACAGCGUGGCAACGUGGCUAUGGCUAGACUGCC, the self-cleavage is 0.06.

GGCAUAGAUCAACACAGCGUGGCAAUGUGGCUGUGGCUAGACUGGC: the self-cleavage is 0.73.

For GGCAUAGUUCAACACAGCGUGGCAAAGUGGCUGUGGCUAGAAUGCC, the self-cleavage is 0.03.

On to GGCAUCGCUCAACACAGCGUGGCAAAGUGGCUGUGGGUAGACUGCC, for which the self-cleavage is 0.04.

As to GGCAUAGCUCAACCCAGCGAGGCAAAGUGGCUGUGGCUAGACUGCC, the self-cleavage was 0.

For GGCACAGCUCAACACAGCGUGGCAAAGUGGCUGGGGCUAGAAGGCC, the self-cleavage came out at 0.02.

As to GGCAUAGCUCAACGAAGCGUGGCAAAGUGGCUGGGGCUAGACUGGC, the self-cleavage was found to be 0.02.

On to GGCAUAGCUCAACCCAGCGUGGCAAAGUGGCUUUGGCUAGACUGCC, for which the self-cleavage stood at 0.03.

GGCAUAGCUCAGCACAGCGUGGCAAAGUGGCUGUGACUAGACUGCC: the self-cleavage amounted to 0.07.

For the variant GGCAUAGCUCAACACUGUGUGGCAAAGUGGCUGUGGCUAGAUUGCG, the self-cleavage stood at 0.03.

Regarding GGCAUAGCUCGACACAGCGUGGCAAAGUGGCUGUGGCUAAACUGUC, the self-cleavage is 0.01.

As for GGCAUUGCUCAACACAGCGUGGCAAAGUGGCUGUGGCUAUACUGCC, the self-cleavage came to 0.

Regarding GGCAUAGCUCAACACUGAGUGGCAAACUGGCUGUGGCUAGACUGCC, the self-cleavage was found to be 0.02.

Regarding GGCAUAGCUCCACACAGCGUGGCCAAGUGGCUGUGGCUUGACUGCC, the self-cleavage was 0.01.

GGCAUAGCUCAACCCAGCGUGGCAAAUUGGCUGUGGCUAGACUGCC: the self-cleavage turned out to be 0.16.

GGCAUAGCUCAACCCAGCAUGGCAAAGUGGCUGUGGCUAGACUGCC: the self-cleavage came out at 0.31.

GGCAUAGCUCAACUCAGAGUGGCAAAGUGGCUGUGGCUAGCCUGCC: the self-cleavage was found to be 0.03.

Regarding GGCAUAGCUCACCACAGCGUGGCAAAGUGGCUGUGGCUUUACUGCC, the self-cleavage was found to be 0.01.

For GGCAUAGCUCAACACUGCGUGGCAAAGUGGCUAUGGCUAGAAUACC, the self-cleavage came to 0.02.

Consider GGCAUAGCUAACCACAGCGUGGCAAACUGGCUGUGGCUAGACUGCC, for which the self-cleavage is 0.01.

GGCAUAGCUCAUCACAGCGUUGCAAAGUGGCUGUUGCUAGACUGCC: the self-cleavage turned out to be 0.03.

Take GGCAUGGCUCAACACAGCGUGGCAAAGUGCCUGUGGCUAGACUGCC: the self-cleavage amounted to 0.07.

As to GGCAUAGCUCACCACAGCGUGGUAAAGUGGCUGUGGAUAUACUGCC, the self-cleavage was found to be 0.03.

As for GGCACAGCUCAACACAGCGGGGCAAAGUGGCUGUGGCUCGACUGGC, the self-cleavage came to 0.04.

Take GGCACAGCUCAACACAGCGAGGCAAAGUGGCUCUGGCUAGACUGCC: the self-cleavage was 0.03.

Source of the values: the RNAGym collection of RNA variant scans (doi:10.7554/elife.90254).
